Test results taken from patent US20220213213A1 (published 2022).

T1: 5T4-Fc (obtained from Peter L. Stern, University of Manchester) (human, UniProt Q13641 32-355)
T1 construct: also called h5T4-Fc; recombinant 5T4; not shown: Fc part not specified
T1 sequence (looked up): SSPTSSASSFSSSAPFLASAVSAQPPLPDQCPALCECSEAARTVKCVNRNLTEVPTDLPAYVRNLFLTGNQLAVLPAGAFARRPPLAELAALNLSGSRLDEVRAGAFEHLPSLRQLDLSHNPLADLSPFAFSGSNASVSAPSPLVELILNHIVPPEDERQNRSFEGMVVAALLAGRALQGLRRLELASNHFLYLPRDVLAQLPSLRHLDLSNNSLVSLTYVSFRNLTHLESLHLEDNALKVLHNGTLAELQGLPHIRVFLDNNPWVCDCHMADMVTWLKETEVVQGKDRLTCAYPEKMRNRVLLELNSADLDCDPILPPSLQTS


Biological target: T1, 5T4-Fc (obtained from Peter L. Stern, …)
Assay: dual ELISA: coated 5T4-Fc, detection with CD137-bio
Method: Plates (#655074, Greiner Bio-One GmbH, Germany) were pre-coated with 0.5 μg/ml 5T4-Fc (obtained from Professor Peter Stern, University of Manchester) overnight. CD137-5T4 bsAb were diluted from 8 to 2×10⁻³ μg/ml in 1:4 dilutions and added in duplicates of 50 μl to each well. CD137-bio (Ancell #502-030) was used as detection antibody at 0.5 μg/ml and the binding was detected with Streptavidin-HRP (Pierce #21126). The ELISA was developed with SuperSignal ELISA PICO Chemiluminescent substrate (Thermo Scientific Pierce, Rockford, Ill. USA) during 2-10 minutes and read in an automated microplate based multi-detection reader (FLUOstar OPTIMA, Netherlands).

Row | Binder | EC50
1 | 1202-1206 (bispecific antibody) chain 1: EVQLLESGGGLVQPGGSLRLSCAASGFTFYGSSMSWVRQAPGKGLEWVSSIYYGSSGTYYADSVKGRFTISRDNSKNTLYLQMNSLRAEDTAVYYCARSYYGYFDYWGQGTLVTVSS[no letters for human IgG1 constant region with changes]GGGGSGGGGSEVQLLESGGGLVQPGGSLRLSCAASGFTFSGSSMSWVRQAPGKGLEWVSSIYYSGSGTYYADSVKGRFTISRDNSKNTLYLQMNSLRAEDTAVYYCARYGRNVHPYNLDYWGQGTLVTVSSGGGGSGGGGSGGGGSDIQMTQSPSSLSASVGDRVTITCRASQSISSYLNWYQQKPGKAPKLLIYAASSLQSGVPSRFSGSGSGTDFTLTISSLQPEDFATYYCQQGYYYLPTFGQGTKLEIK chain 2: DIQMTQSPSSLSASVGDRVTITCRASQSISSYLNWYQQKPGKAPKLLIYAASSLQSGVPSRFSGSGSGTDFTLTISSLQPEDFATYYCQQYYTVVPFTFGQGTKLEIKRTVAAPSVFIFPPSDEQLKSGTASVVCLLNNFYPREAKVQWKVDNALQSGNSQESVTEQDSKDSTYSLSSTLTLSKADYEKHKVYACEVTHQGLSSPVTKSFNRGEC | 0.61 nM
2 | 1204-1206 (bispecific antibody) chain 1: EVQLLESGGGLVQPGGSLRLSCAASGFTFSSYYMGWVRQAPGKGLEWVSGIGSYYGYTGYADSVKGRFTISRDNSKNTLYLQMNSLRAEDTAVYYCARAYYDYNYYYAYFDYWGQGTLVTVSS[no letters for human IgG1 constant region with changes]GGGGSGGGGSEVQLLESGGGLVQPGGSLRLSCAASGFTFSGSSMSWVRQAPGKGLEWVSSIYYSGSGTYYADSVKGRFTISRDNSKNTLYLQMNSLRAEDTAVYYCARYGRNVHPYNLDYWGQGTLVTVSSGGGGSGGGGSGGGGSDIQMTQSPSSLSASVGDRVTITCRASQSISSYLNWYQQKPGKAPKLLIYAASSLQSGVPSRFSGSGSGTDFTLTISSLQPEDFATYYCQQGYYYLPTFGQGTKLEIK chain 2: DIQMTQSPSSLSASVGDRVTITCRASQSISSYLNWYQQKPGKAPKLLIYAASSLQSGVPSRFSGSGSGTDFTLTISSLQPEDFATYYCQQSVPHYPFTFGQGTKLEIKRTVAAPSVFIFPPSDEQLKSGTASVVCLLNNFYPREAKVQWKVDNALQSGNSQESVTEQDSKDSTYSLSSTLTLSKADYEKHKVYACEVTHQGLSSPVTKSFNRGEC | 0.54 nM
3 | 1206-1202 (bispecific antibody) chain 1: EVQLLESGGGLVQPGGSLRLSCAASGFTFSGSSMSWVRQAPGKGLEWVSSIYYSGSGTYYADSVKGRFTISRDNSKNTLYLQMNSLRAEDTAVYYCARYGRNVHPYNLDYWGQGTLVTVSS[no letters for human IgG1 constant region with changes]GGGGSGGGGSEVQLLESGGGLVQPGGSLRLSCAASGFTFYGSSMSWVRQAPGKGLEWVSSIYYGSSGTYYADSVKGRFTISRDNSKNTLYLQMNSLRAEDTAVYYCARSYYGYFDYWGQGTLVTVSSGGGGSGGGGSGGGGSDIQMTQSPSSLSASVGDRVTITCRASQSISSYLNWYQQKPGKAPKLLIYAASSLQSGVPSRFSGSGSGTDFTLTISSLQPEDFATYYCQQYYTVVPFTFGQGTKLEIK chain 2: DIQMTQSPSSLSASVGDRVTITCRASQSISSYLNWYQQKPGKAPKLLIYAASSLQSGVPSRFSGSGSGTDFTLTISSLQPEDFATYYCQQGYYYLPTFGQGTKLEIKRTVAAPSVFIFPPSDEQLKSGTASVVCLLNNFYPREAKVQWKVDNALQSGNSQESVTEQDSKDSTYSLSSTLTLSKADYEKHKVYACEVTHQGLSSPVTKSFNRGEC | 0.28 nM
4 | 1206-1204 (bispecific antibody) chain 1: EVQLLESGGGLVQPGGSLRLSCAASGFTFSGSSMSWVRQAPGKGLEWVSSIYYSGSGTYYADSVKGRFTISRDNSKNTLYLQMNSLRAEDTAVYYCARYGRNVHPYNLDYWGQGTLVTVSS[no letters for human IgG1 constant region with changes]GGGGSGGGGSEVQLLESGGGLVQPGGSLRLSCAASGFTFSSYYMGWVRQAPGKGLEWVSGIGSYYGYTGYADSVKGRFTISRDNSKNTLYLQMNSLRAEDTAVYYCARAYYDYNYYYAYFDYWGQGTLVTVSSGGGGSGGGGSGGGGSDIQMTQSPSSLSASVGDRVTITCRASQSISSYLNWYQQKPGKAPKLLIYAASSLQSGVPSRFSGSGSGTDFTLTISSLQPEDFATYYCQQSVPHYPFTFGQGTKLEIK chain 2: DIQMTQSPSSLSASVGDRVTITCRASQSISSYLNWYQQKPGKAPKLLIYAASSLQSGVPSRFSGSGSGTDFTLTISSLQPEDFATYYCQQGYYYLPTFGQGTKLEIKRTVAAPSVFIFPPSDEQLKSGTASVVCLLNNFYPREAKVQWKVDNALQSGNSQESVTEQDSKDSTYSLSSTLTLSKADYEKHKVYACEVTHQGLSSPVTKSFNRGEC | 0.66 nM
5 | 1200-1208 (bispecific antibody) chain 1: not shown chain 2: DIQMTQSPSSLSASVGDRVTITCRASQSISSYLNWYQQKPGKAPKLLIYAASSLQSGVPSRFSGSGSGTDFTLTISSLQPEDFATYYCQQYYIPHTFGQGTKLEIKRTVAAPSVFIFPPSDEQLKSGTASVVCLLNNFYPREAKVQWKVDNALQSGNSQESVTEQDSKDSTYSLSSTLTLSKADYEKHKVYACEVTHQGLSSPVTKSFNRGEC | 16.8 nM
6 | 1202-1208 (bispecific antibody) chain 1: not shown chain 2: DIQMTQSPSSLSASVGDRVTITCRASQSISSYLNWYQQKPGKAPKLLIYAASSLQSGVPSRFSGSGSGTDFTLTISSLQPEDFATYYCQQYYTVVPFTFGQGTKLEIKRTVAAPSVFIFPPSDEQLKSGTASVVCLLNNFYPREAKVQWKVDNALQSGNSQESVTEQDSKDSTYSLSSTLTLSKADYEKHKVYACEVTHQGLSSPVTKSFNRGEC | 2.25 nM
7 | 1204-1208 (bispecific antibody) chain 1: not shown chain 2: DIQMTQSPSSLSASVGDRVTITCRASQSISSYLNWYQQKPGKAPKLLIYAASSLQSGVPSRFSGSGSGTDFTLTISSLQPEDFATYYCQQSVPHYPFTFGQGTKLEIKRTVAAPSVFIFPPSDEQLKSGTASVVCLLNNFYPREAKVQWKVDNALQSGNSQESVTEQDSKDSTYSLSSTLTLSKADYEKHKVYACEVTHQGLSSPVTKSFNRGEC | 2.34 nM
8 | 1214-1208 (bispecific antibody) chain 1: not shown chain 2: DIQMTQSPSSLSASVGDRVTITCRASQSISSYLNWYQQKPGKAPKLLIYAASSLQSGVPSRFSGSGSGTDFTLTISSLQPEDFATYYCQQDAYPHTFGQGTKLEIKRTVAAPSVFIFPPSDEQLKSGTASVVCLLNNFYPREAKVQWKVDNALQSGNSQESVTEQDSKDSTYSLSSTLTLSKADYEKHKVYACEVTHQGLSSPVTKSFNRGEC | 1.4 nM
9 | 1620-1208 (bispecific antibody) chain 1: not shown chain 2: DIQMTQSPSSLSASVGDRVTITCRASQSISSYLNWYQQKPGKAPKLLIYAASSLQSGVPSRFSGSGSGTDFTLTISSLQPEDFATYYCQQGVGPYTFGQGTKLEIKRTVAAPSVFIFPPSDEQLKSGTASVVCLLNNFYPREAKVQWKVDNALQSGNSQESVTEQDSKDSTYSLSSTLTLSKADYEKHKVYACEVTHQGLSSPVTKSFNRGEC | 12.7 nM
